# Data taken from PubChem BioAssay AID485360 (National Center for Advancing Translational Sciences (NCATS), 2010).
# About 1,500 (0.65%) of roughly 230,000 compounds were called active. Inconclusive results, whose numbers are uncertain, are shown with a selection of clear calls. Calls follow the shape of the dose curve; as a rule, active = well fitted inhibition curve with a large enough effect; inconclusive = small, poorly fitted or top-dose-only effect; inactive = no such curve, though single readings can be large or run the other way. Potencies beside an inconclusive call are fits to weak or partial responses and may not hold up.
# Target: Lethal(3)malignant brain tumor-like protein 1 (Homo sapiens) (UniProt Q9Y468)
# UniProt Q9Y468, sequence (Q9Y468 whole entry, looked up): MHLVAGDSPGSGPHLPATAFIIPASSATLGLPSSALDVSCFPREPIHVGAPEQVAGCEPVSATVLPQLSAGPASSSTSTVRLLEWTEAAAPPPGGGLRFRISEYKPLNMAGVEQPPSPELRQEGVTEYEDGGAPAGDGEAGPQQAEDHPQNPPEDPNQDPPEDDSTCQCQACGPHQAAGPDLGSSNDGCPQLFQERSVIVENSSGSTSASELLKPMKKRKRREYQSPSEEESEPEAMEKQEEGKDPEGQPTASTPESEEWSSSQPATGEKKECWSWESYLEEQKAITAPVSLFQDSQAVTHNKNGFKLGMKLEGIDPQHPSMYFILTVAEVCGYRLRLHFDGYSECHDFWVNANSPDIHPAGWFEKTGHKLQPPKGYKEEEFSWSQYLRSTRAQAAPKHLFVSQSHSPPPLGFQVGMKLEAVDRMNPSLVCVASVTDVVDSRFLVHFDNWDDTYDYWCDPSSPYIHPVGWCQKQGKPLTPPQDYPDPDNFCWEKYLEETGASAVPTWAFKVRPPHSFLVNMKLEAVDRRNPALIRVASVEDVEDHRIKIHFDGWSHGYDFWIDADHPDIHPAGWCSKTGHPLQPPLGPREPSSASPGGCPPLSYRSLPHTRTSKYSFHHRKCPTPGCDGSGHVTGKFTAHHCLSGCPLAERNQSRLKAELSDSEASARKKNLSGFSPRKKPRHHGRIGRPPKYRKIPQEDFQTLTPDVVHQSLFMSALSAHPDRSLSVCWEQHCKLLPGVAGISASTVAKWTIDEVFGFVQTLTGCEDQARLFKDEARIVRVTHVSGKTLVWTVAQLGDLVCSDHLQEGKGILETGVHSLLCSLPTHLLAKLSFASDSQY
# Assay: qHTS Assay for the Inhibitors of L3MBTL1; also: nearly all actives have a fitted effect of over 60% in size
# Conditions: AlphaScreen L3MBTL1–H3K9me1 peptide binding; series mostly up to 57.1 µM
# Outline: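 AlphaScreen proximity signal between nickel-chelate acceptor and streptavidin donor beads (final 10 ug/mL) reports binding of 50 nM L3MBTL1 to 75 nM biotin-H3 K9me1 peptide; complex incubated with compounds 30 min at room temperature; cefsulodin titration as control.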
# Potency is read from the fitted curve at half-maximal effect; tags tell the direction and shape of the fitted curve.
row,Structure (SMILES),Potency
1,Cc1ccc(CN2C(=O)CCC2C(=O)NC2CC2)cc1 (stereo not given),"inconclusive: 39.8 µM [inhibitor, single point]"
2,Cc1nc2cc(NCc3ccc(Cl)cc3)ccc2n1C,inactive
3,CCCCC(=O)NC(c1ccc(N(C)C)cc1)c1ccc2cccnc2c1O (stereo not given),"inconclusive: 28.2 µM [inhibitor, single point]"
4,O=C(NCCc1ccccc1)C1CCN(S(=O)(=O)N2CCCC2)CC1,"inconclusive: 2 µM [inhibitor, single point]"
5,Cc1ccc(NC(=O)C(=O)NCc2ccncc2)cc1,"inconclusive: 0.355 µM [inhibitor, full curve, poor fit]"
6,CC(C)NC(=S)N=Nc1c(O)[nH]c2ccc(C(C)C)cc12,"inconclusive: 22.4 µM [inhibitor, single point]"
7,CCOC(=O)c1[nH]cnc1C(=O)Nc1ccc(F)cc1,inactive
8,O=[N+]([O-])c1ccc(O)c(/C=N/Nc2nn[nH]n2)c1,active: 14.1 µM
9,COc1ccccc1C(CC(=O)Nc1nccs1)c1ccco1 (stereo not given),inactive
10,O=C(CCO)c1ccc(O)cc1,active: 3.55 µM
11,Nc1nc(-c2ccco2)c(-c2ccco2)s1,"inconclusive: 39.8 µM [inhibitor, single point]"
12,COc1ccc(Nc2ccc(S(=O)(=O)N3CCCCC3)cc2[N+](=O)[O-])cc1Cl,"inconclusive: 8.91 µM [inhibitor, full curve, poor fit]"
13,Cn1c(Cc2ccccc2)nnc1SCc1cc(=O)n2ccsc2n1,"inconclusive: 39.8 µM [inhibitor, single point]"
14,O=c1c(-c2c(O)cc(O)c3c2O[C@H](c2ccc(O)cc2)CC3)c(-c2ccc(O)cc2)oc2cc(O)cc(O)c12,"inconclusive: 15.8 µM [inhibitor, partial curve]"
15,CCn1c(C)cc(/C=C2/NC(=O)N(c3ccccc3)C2=O)c1C,inactive
16,O=C(COC(=O)CCc1ccc(S(=O)(=O)N2CCOCC2)cc1)NCc1ccc(Cl)cc1,inactive
17,COc1cccc(CNC(=O)c2cc(S(=O)(=O)N3CCCC3)cn2C)c1,"inconclusive: 31.6 µM [inhibitor, single point]"
18,COc1ccc(CN(CC(=O)NC2CCCC2)C(=O)c2ccc(-c3ccccc3)[nH]2)cc1,"inconclusive: 44.7 µM [inhibitor, partial curve, poor fit]"
19,O=c1ccc(C(F)(F)F)cn1Cc1cc(=O)n2cc(Br)ccc2n1,"inconclusive: 28.2 µM [inhibitor, partial curve]"
20,CC1CC1C(=O)OCC(=O)Nc1ccc(Cl)cn1 (stereo not given),inactive
21,O=C(c1ccc(=O)oc1)N1CCOCC1,active: 4.47 µM
22,C(=N/Nc1nc(-c2ccccc2)cc(-c2ccccc2)n1)/c1cccnc1,inactive
23,Cn1ccnc1-c1nc2ccccc2[nH]c1=O,"inconclusive: 25.1 µM [inhibitor, single point]"
24,CCN1C(=O)/C(=C2/Sc3ccccc3N2CC)S/C1=N\c1ncn[nH]1,inactive

row,Structure (SMILES),Potency
1,Cc1ccc(-c2nc3s/c(=C\c4ccco4)c(=O)n3n2)cc1,"inconclusive: 31.6 µM [inhibitor, partial curve]"
2,COc1ccc(/C(N)=N/OC(=O)c2cccc([N+](=O)[O-])c2C)cc1,"inconclusive: 25.1 µM [inhibitor, partial curve, poor fit]"
3,C/C(CC(C)C)=N/Nc1ccc([N+](=O)[O-])cc1[N+](=O)[O-],"inconclusive: 39.8 µM [inhibitor, single point]"
4,C=CCNC(=O)/C(=C/c1ccco1)NC(=O)c1ccc(Br)o1,"inconclusive: 39.8 µM [inhibitor, single point]"
5,CC1Cc2ccccc2N1CC(=O)N(C)c1c(N)n(Cc2ccccc2)c(=O)[nH]c1=O (stereo not given),"inconclusive: 0.708 µM [inhibitor, single point]"
6,Cc1nnc(NC(=O)/C=C/c2ccco2)s1,"inconclusive: 28.2 µM [inhibitor, single point]"
7,O=C(Cc1cccs1)Nc1nc2c(s1)CCCC2,"inconclusive: 28.2 µM [inhibitor, partial curve]"
8,O=C(CN1C(=O)CCS(=O)(=O)c2ccccc21)NCc1ccc(F)cc1,"inconclusive: 6.31 µM [inhibitor, single point]"
9,COCCCn1c(O)c(/C=C2\N=C(C#N)C(=Nc3ccc(C)cc3)O2)sc1=S,inactive
10,O=c1c([N+](=O)[O-])cccn1Cc1ccc(F)cc1Cl,"inconclusive: 39.8 µM [inhibitor, single point]"
11,CCC(C)N(C(=O)COC(=O)c1ccc(=O)n(Cc2ccccc2)n1)C1CCS(=O)(=O)C1 (stereo not given),inactive
12,CCc1ccccc1NC(=O)CSc1nc2ccccc2n1CC(=O)N1CCCC1,"inconclusive: 6.31 µM [inhibitor, partial curve]"
13,COc1ccc(Cc2nnc(N/N=C/c3ccccc3O)[nH]c2=O)cc1OC,active: 8.91 µM
14,O=C(O)C1CCCN(S(=O)(=O)c2ccc(Cl)s2)C1 (stereo not given),"inconclusive: 39.8 µM [inhibitor, single point]"
15,Oc1cccc(C(Nc2nccs2)c2ccc3cccnc3c2O)c1 (stereo not given),"inconclusive: 0.891 µM [inhibitor, full curve, poor fit]"
16,O=[N+]([O-])c1ccc(/C=N/N=C/c2ccc([N+](=O)[O-])o2)o1,"inconclusive: 5.62 µM [inhibitor, full curve]"
17,Cc1ccc(NC(=O)c2cc(N3C(=O)CCC3=O)ccc2N2CCOCC2)cc1,"inconclusive: 39.8 µM [inhibitor, single point]"
18,COc1ccc(-n2cnc3cc(NS(=O)(=O)c4ccccc4)ccc32)cc1,"inconclusive: 8.91 µM [inhibitor, single point]"
19,CC(C)(O)c1[nH]c2ccc(C#N)cc2c1C(C)(C)O,"inconclusive: 7.08 µM [inhibitor, single point]"
20,C/C(=N\NC(=O)CNc1cccc(Cl)c1C)C1CC1,"inconclusive: 39.8 µM [inhibitor, single point]"
21,CCN(CC(=O)Nc1c(F)cccc1F)C(=O)CCc1nc2sc3c(c2c(=O)[nH]1)CCCC3,"inconclusive: 35.5 µM [inhibitor, single point]"
22,O=C(Cn1c2ccccc2c(=O)c2ccccc21)Nc1ccccc1F,"inconclusive: 7.08 µM [inhibitor, single point]"
23,CN1CCc2c(n(CC(O)CN(CCO)CCO)c3ccccc23)C1=O (stereo not given),"inconclusive: 39.8 µM [inhibitor, single point]"
24,CSc1nc(N(C)NC(=O)c2ccc(F)cc2)c2ccccc2n1,"inconclusive: 6.31 µM [inhibitor, single point]"

row,Structure (SMILES),Potency
1,CCN(c1ccccc1)S(=O)(=O)c1ccc(N2CCN(c3ccc(O)cc3)CC2)nc1,"inconclusive: 20 µM [inhibitor, partial curve]"
2,COCCCN=C(c1ccco1)n1c(=S)nc(-c2ccco2)n(CCCOC)c1=S,"inconclusive: 35.5 µM [inhibitor, single point]"
3,CCOC(=O)Cn1c(=O)n(Cc2ccco2)c(=O)c2ccc(C(=O)NCCc3ccccc3)cc21,inactive
4,Cc1ccc2c(c1)NC(=O)C(CC(=O)NC1CCCCC1C)O2 (stereo not given),inactive
5,COc1ccccc1S(=O)(=O)NCc1ccc(C(=O)NC(C)c2ccccn2)cc1 (stereo not given),"inconclusive: 39.8 µM [inhibitor, single point]"
6,O=C(Nc1ccc2c(c1)OCO2)N1CCN(Cc2ccco2)CC1,inactive
7,COc1ccccc1/C=N/NC(=O)c1ccc(NC(=O)c2cccc([N+](=O)[O-])c2)cc1,"inconclusive: 39.8 µM [inhibitor, single point]"
8,CCC1=C/C(=C\c2ccc3c(c2)OCO3)C(=O)S1,"inconclusive: 31.6 µM [inhibitor, single point]"
9,O=C(O)c1cc(N/N=C/c2ccc(OCc3ccccc3)cc2)ccc1Cl,"inconclusive: 35.5 µM [inhibitor, single point]"
10,CC12C(=O)N(c3nccs3)C(=O)C1C1C=CC2C1 (stereo not given),"inconclusive: 39.8 µM [inhibitor, single point]"
11,O=C(CCl)NC1CCCc2ccccc21 (stereo not given),inactive
12,CC1(C)Cc2c(sc3nc(-c4cccs4)n(N)c(=O)c23)CO1,inactive
13,O=c1[nH]c2ccc(NS(=O)(=O)c3ccc4ccccc4c3)cc2[nH]1,inactive
14,CNC(=S)NNC(=O)c1cccn(Cc2ccc(Cl)cc2Cl)c1=O,inactive
15,COc1ccccc1NC(=O)c1ccccc1NC(=O)c1cc(Cl)ccc1NC(=O)c1ccco1,inactive
16,S=c1[nH]nc(-c2ccc3ccccc3n2)n1-c1ccccc1Cl,inactive
17,Oc1ccccc1-c1nc(N2CCN(Cc3ccccc3)CC2)c2ccccc2n1,"inconclusive: 0.562 µM [inhibitor, single point]"
18,CC(=O)c1ccc(NC2=C(N3CCOCC3)C(=O)c3ccccc3C2=O)cc1,"inconclusive: 25.1 µM [inhibitor, single point]"
19,Cc1c(C(=O)Oc2cccc3cccnc23)oc2ccccc12,"inconclusive: 28.2 µM [inhibitor, single point]"
20,O=C(Nc1cccc(Cl)c1)c1cc(N=Nc2ccc([N+](=O)[O-])cc2Cl)ccc1O,"inconclusive: 1.26 µM [inhibitor, full curve]"
21,CCCn1c(NC(=S)Nc2ccccc2)nc2ccccc21,"inconclusive: 12.6 µM [inhibitor, partial curve]"
22,COc1cccc(C(=O)NC2CC3CCCC(C2)N3CC(=O)Nc2ccc(N(C)C)cc2)c1 (stereo not given),"inconclusive: 39.8 µM [inhibitor, single point]"
